The source gives no read counts; variants with many changes may rest on few reads.

Sequences and labels used below:
B1: CPEB3 Ribozyme (parent)
chain: UAACAGGGGGCCACAGCAGAAGCGUUCACGUCGCAGCCCCUGUCAGAUUCUGGUGAAUCUGCGAAUUCUGCUGUAUAUCUC

The variants in the series derive from B1. Put plainly: self-cleavage, relative activity (ratio to wild type); higher = more cleavage; in vitro, sequencing. The method, boiled down: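 After error-prone PCR and barcoding, CPEB3 ribozyme mutant libraries were transcribed with T7 RNA polymerase at 37°C for 5 hours, then given 15 min with DNase I before an EDTA stop, and they cleaved during both steps. Reverse transcription with template switching preceded Illumina sequencing. Relative activity divides a variant's cleaved/total read fraction by the unmutated ribozyme's. At least 5 reads were required per variant, and three batches were averaged.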
In the case of A3C A35G U43A U51C U60C, the self-cleavage is 0.87.
As for A2U G7A A35G U66C U74C, the self-cleavage was 0.08.
Turning to A2U A75G U78C, the self-cleavage worked out at 0.53.
As to A2U A20G A21G A35U U69C, the self-cleavage is 0.22.
As to A2U G8A U25A U31C U67G, the self-cleavage worked out at 0.14.
For the variant A2U G9U A13U A45G U49C U54A A57G, the self-cleavage turned out to be 0.04.
Turning to A3C A18U U49C U60C U72C, the self-cleavage came out at 0.08.
Regarding A2U U26A A28G U72C U76A, the self-cleavage came to 0.3.
As to A3C U43A C62U, the self-cleavage was 0.34.
For the variant A3C U26C A28C A35U U60C G63A, the self-cleavage worked out at 0.09.
Under A2U G6A U41C stands 0.54; under A3G A5G A35C U43C U69C, 0.39.
For the variant A2U U25C A28U A35G A45U U51C U80C, the self-cleavage stood at 0.01.
As to A2U A20G U41A A64G, the self-cleavage came out at 0.15.
Under A2U G6A A35U U43C A56U stands 0.28; under A2U A65G G73C, 0.13.
With A2U G9U A57G U72C U74C A77G, the self-cleavage was 0.05.
Turning to A3G A5G A20U U31C U72C U78G, the self-cleavage was 0.11.
Turning to A2U G7A A28G A35U A47G A57G U72C, the self-cleavage stood at 0.12.
The same measure for A3C A35U A57G U69C U74A: 0.19; for A3C A15U A65G U80C: 0.51.
As for A2U G19C A21G U51G A57G A75U, the self-cleavage came to 0.03.
With A3C A28G C40A U41A A47U C68A U74C, the self-cleavage worked out at 0.05.
As to A3C U41C U43A, the self-cleavage stood at 0.93.
For the variant A2U A35G U54C A64U, the self-cleavage was 0.98.
As to A3C A13U G42A C44A, the self-cleavage was determined as 0.32.
Regarding A3C C29G A65G, the self-cleavage was determined as 0.08.
Turning to A2U A56G U58A, the self-cleavage was 0.26.
Under A2U U41A A56G stands 0.24; under A2U C17A U26A U41C A77U, 0.33; under A2U A56U A64G, 0.37.
As for A2U G9C A77G, the self-cleavage was 0.43.
The same measure for A2U A35U A45U U54C: 0.19; for A3G A5C U26C U48A G52U U78A: 0.8.
For A2U A21G A47G U48C U49C U51A U72A, the self-cleavage is 0.32.
As to A2U U41C G42C U51C A64G U69C, the self-cleavage was 0.36.
Consider A2U G6U C32A U67A U76C, for which the self-cleavage came out at 0.31.
As for A3C A5C A28C A56G U58C, the self-cleavage came to 0.28.
As for A2U A28G A75U, the self-cleavage stood at 0.79.
On to A2U A18U U60C, for which the self-cleavage was 0.17.
Under A2U A56U U60A stands 0.21; under A2U U25C U41C U66C, 0.38.
Consider A3C A18U U51C, for which the self-cleavage amounted to 0.39.
Take A3G A5G A13U A28G U66C A75U: the self-cleavage was determined as 0.17.
For the variant A3C A21G U25C C71G, the self-cleavage worked out at 0.08.
For A3C A13G U26C A28G C40U C50A, the self-cleavage is 0.07.
Under A2U A35G U41A A47C U67C stands 0.37; under A2U U25C A28G A64G C68A U74C, 0.03; under A2U U49A U51C U60A, 0.14.
A3G A5G A20U: the self-cleavage stood at 1.02.
The same measure for A3C A15G A47G U54C A56U U67C U78A: 0.19.
The same measure for A3G A5C G9A A28G: 0.63; for A3C A45C G73A U76A: 0.89.
For the variant A3C A5G A13G U25A U60C, the self-cleavage turned out to be 0.
Under A3C C29G U74C stands 0.74; under A3C G30A U31C, 0.55.
For the variant A3C G10A A18G A56G U74A, the self-cleavage was found to be 0.08.
The same measure for A2U A21G U49A U51C U60C: 0.07.
The same measure for A2U A20U A28G U54C A64U: 0.07; for A3C U72A U78C: 1.14; for A2U U48C U49C U69A U72C: 0.11.
With A2U U31C U58C, the self-cleavage is 0.1.
With A2U C12U A15G A20U U58C A64U, the self-cleavage was 0.17.
Regarding A2U U67C U74C, the self-cleavage was determined as 0.18.
For A3C A13G U49C, the self-cleavage is 0.48.
The same measure for A2U A20C A47U G73C U74A: 0.04; for A3C A20G A28U C32A A47G U60C U80C: 0.28.
Take A3C A13C U67C U72C U78C: the self-cleavage turned out to be 0.37.
Take A2U G9A A45G: the self-cleavage worked out at 0.41.
Turning to A3C A21G A35G C38U, the self-cleavage came to 1.2.
For A3C U31C U41C A57G U60C, the self-cleavage is 0.39.
For A2U G8A U26C A35G U60C, the self-cleavage is 0.07.
As to A2U G19A U41C U51C, the self-cleavage was 0.21.
A2U G10A A13U U78C: the self-cleavage was 0.28.
Turning to A3C A5G A35U U51A U80C, the self-cleavage was found to be 0.48.
As for A2U U25C A64C U80C, the self-cleavage was 0.1.
For the variant A2U U41C A64G U67A U69C, the self-cleavage turned out to be 0.2.
As to A2U C14U A18U U25C U26G C44U, the self-cleavage amounted to 0.15.
Regarding A2U G52C A64G C68U, the self-cleavage amounted to 0.62.
Regarding A3C G6A U67A, the self-cleavage amounted to 0.08.
For A2U G6A U41C A57G, the self-cleavage came out at 0.42.
In the case of A3C A28U U43C A45G U80C, the self-cleavage is 0.46.
The same measure for A2U A20G U25C U26C U48C C62A U80A: 0.05; for A3C A47G U48A: 0.68.
Regarding A2U A28G U54C U58C U72A, the self-cleavage came to 0.08.
Under A2U G7A C38A A56G stands 0.18.
For A3C A13U U43C, the self-cleavage worked out at 1.24.
A3G A5G A13G U72G U80C: the self-cleavage was 0.84.
Consider A2U G9A U72C U78C, for which the self-cleavage amounted to 0.17.
A3G A5C G55A: the self-cleavage was determined as 0.55.
Under A2U U69C U78A stands 0.29; under A2U C17U A45C, 0.1.
As for A3C A56U U69A U76C, the self-cleavage was 0.33.
The same measure for A2U C34G C62U: 0.1; for A3C C38U U69C A75G: 0.38; for A3C A28U A35G U43A U58A U60C U69A: 0.46.
Take A3C A5C A15U: the self-cleavage amounted to 0.47.
Consider A3G A5G A13U A47G U60A A64G, for which the self-cleavage was 0.23.
In the case of A3C U48C U49A U66C, the self-cleavage amounted to 0.21.
A2U A28G U67C U72C: the self-cleavage was 0.16.
With A2U U41C U60A U67C A75G, the self-cleavage amounted to 0.17.
The same measure for A2U U49C U51C U60A: 0.09; for A3C G10A A18G A21G: 0.07; for A3C U60C U76C A77U: 0.73.
Turning to A3C U58C U66C, the self-cleavage was 0.26.
As to A2U U54C U69C U78C, the self-cleavage came out at 0.32.
Take A2U A28G G33A U43C: the self-cleavage worked out at 0.28.
Turning to A3C U51C A64G, the self-cleavage is 1.56.
Consider A2U U54G A64U, for which the self-cleavage was found to be 0.32.
A3C A21G G22A C23U U51C U60C A64C: the self-cleavage turned out to be 0.07.
In the case of A2U U41C U67A, the self-cleavage stood at 0.58.
With A2U A18U C40A A57U U78C, the self-cleavage is 0.09.
Under A3C U31A U51G stands 0.67; under A3G A5G A15U, 0.85.
For A2U A35G U41C U66C A77G U78C, the self-cleavage is 0.7.
In the case of A2U A21G A28G U41G, the self-cleavage was determined as 0.26.
For the variant A2U C11G A13U U26A C38U A75G U76C, the self-cleavage was determined as 0.05.
Consider A2U A21G U41A, for which the self-cleavage came to 0.16.
Take A2U A20U U25C U26C: the self-cleavage worked out at 0.05.
The same measure for A2U U26C U60C A64G U66C U69C: 0.31.
Consider A2U U25G U26A C38U U72C, for which the self-cleavage worked out at 0.36.
Under A3C G9C G53A G61C stands 0.06; under A2U G8U A28G, 0.07; under A2U A35U A64G U72A, 0.12.
Regarding A3C A18U A45G A56G, the self-cleavage turned out to be 0.42.
On to A3C A13G G73A, for which the self-cleavage was found to be 1.16.
On to A3G A5G A28G, for which the self-cleavage came to 0.58.
Turning to A2U U26A A45U U54C, the self-cleavage was found to be 0.37.
Consider A3C U43A U54C G73U U80C, for which the self-cleavage was 1.3.
Regarding A3C A15G U26A A64G, the self-cleavage was 0.92.
Under A3C A20G U25A A47C U48C stands 0.37; under A2U A21U C23U, 0.11.
As to A3C A20G A21G A47U, the self-cleavage turned out to be 0.4.
Consider A2U G9A A18U A56U, for which the self-cleavage was 0.18.
In the case of A3C C38U U51C A56G U67A G73A, the self-cleavage came out at 0.85.
A2U C12U A18U A20U U26A A28U U76C: the self-cleavage was 0.05.
With A3C A5C C11G A13U C40U U76C, the self-cleavage was 0.61.
For the variant A2U C34U A35G A64G U72C U74C, the self-cleavage stood at 0.11.
Regarding A2U U25C U67C U72C, the self-cleavage was determined as 0.08.
Turning to A2U A28C A64G, the self-cleavage came to 0.52.
Turning to A3C C12U G16U U76C A77U, the self-cleavage is 0.58.
The same measure for A3C C27A U41A U51C A56U: 0.11; for A2U U69C A75G: 0.23; for A3C U48C U69C U74C U80C: 0.59.
A3C A35G A65G A75G: the self-cleavage worked out at 1.06.
The same measure for A3C A28G U49C: 0.14.
With A2U U25C A28C, the self-cleavage was found to be 0.08.
Under A3C U26C U43C A64U stands 0.21; under A3G A5C G33U, 0.38; under A3G A5C A65G, 0.81.
Turning to A3C A20U A35U G63A U69C, the self-cleavage was determined as 0.08.
As for A3C C32A U43C U54C, the self-cleavage was 0.22.
As for A2U A47G U54C C68A U72A, the self-cleavage stood at 0.26.
As to A3G A5G A21G C34U U49C A64G A77C, the self-cleavage stood at 0.28.
The same measure for A3G A5G A13G U51A U80C: 0.76.
With A2U G10A C23U U43C, the self-cleavage is 0.06.
As for A3C C17U U25C U26C U41G U69C, the self-cleavage was 0.09.
Under A2U U31C A35G stands 1.12.
Under A2U U26A U72C stands 0.18; under A2U A20U A45G A56G U74C, 0.35.
Turning to A2U C14A G42A, the self-cleavage was found to be 0.25.
Under A2U U25C A64U A75U stands 0.08.
A3G A5G A13U A56U: the self-cleavage amounted to 0.72.
As to A3G A5G A28U U31C U41A U43A G70C, the self-cleavage was 0.2.
Turning to A3C A5C A21G U51G U74A, the self-cleavage is 1.01.
As to A3G A5G A21G U51C U69A, the self-cleavage came to 0.35.
A3C C4U G24A A28U A64G: the self-cleavage was 0.65.

(Values after the RNAGym collection of RNA variant scans (doi:10.1093/nar/gkz1192).)
